According to the supplement of paper PMC12230231:
± gives the standard deviation of the averaged measurements. Restriction of a single-cycle SIVsab GFP reporter by TRIM5α v1-loop variants in CRFK cells. Human variants: read share among cells still uninfected after two challenges over input, higher = gained restriction. Rhesus variants: share among infected cells over input, higher = lost restriction. Reporter dose not given per row. No active / inactive call per row; the paper calls a change when both replicates lie above its controls (mean + 2 SD of stop or wild-type variants, or the top frameshift score). Residues outside the varied loop are taken from Swiss-Prot. The paper reads the human single-substitution scores as noise; they and the rhesus combinations repeat poorly (rank correlation 0.3 to 0.4), indel scores repeat only for the top variants, rhesus substitutions well (0.9).

What follows are sequences tested on SIVsab (simian immunodeficiency virus of sabaeus monkeys), single-cycle GFP reporter, in CRFK cells (assay: enrichment among uninfected cells over input (fold); higher = stronger restriction). Settings: library: human / rhesus combinations.
Procedure: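 Pools of CRFK cells expressing variants of the TRIM5α v1 loop were challenged with the single-cycle reporter, sorted by GFP and sequenced; mean of two replicates.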

Sequence | enrichment
MASGILVNVKEEVTCPICLELLTQPLSLDCGHSFCQACLTANHKKSMLDKGESSCPVCRISYQPENIRPNRHVANIVEKLREVKLSPEGQKVDHCARHGEKLLLFCQEDGKVICWLCERSQEHRGHHTFLTEEVAREYQVKLQAALEMLRQKQQEAEELEADIREEKASWKTQIQYDKTNVLADFEQLRDILDWEESNELQNLEKEEEDILKSLTNSETEMVQQTQSLRELISDLEHRLQGSVMELLQGVDGVIKRTENVTLKKPETFPKNQRRVFRAPDLKGMLEVFRELTDVRRYWVDVTVAPNNISCAVISEDKRQVSSPKPQIIYGARGTRFTFPSLTNFNYCTGILGSQSITSGKHYWEVDVSKKTAWILGVCAGFQPDAMCNIEKNENYQPKYGYWVIGLEEGVKCSAFQDSSFHTPSVPFIVPLSVIICPDRVGVFLDYEACTVSFFNITNHGFLIYKFSHCSFSQPVFPYLNPRKCGVPMTLCSPSS [human TRIM5α, 330-340 = GARGTRFTFPSLT] | 0.0704 ± 0.012
MASGILVNVKEEVTCPICLELLTQPLSLDCGHSFCQACLTANHKKSMLDKGESSCPVCRISYQPENIRPNRHVANIVEKLREVKLSPEGQKVDHCARHGEKLLLFCQEDGKVICWLCERSQEHRGHHTFLTEEVAREYQVKLQAALEMLRQKQQEAEELEADIREEKASWKTQIQYDKTNVLADFEQLRDILDWEESNELQNLEKEEEDILKSLTNSETEMVQQTQSLRELISDLEHRLQGSVMELLQGVDGVIKRTENVTLKKPETFPKNQRRVFRAPDLKGMLEVFRELTDVRRYWVDVTVAPNNISCAVISEDKRQVSSPKPQIIYQARGTLFTFQTFVNFNYCTGILGSQSITSGKHYWEVDVSKKTAWILGVCAGFQPDAMCNIEKNENYQPKYGYWVIGLEEGVKCSAFQDSSFHTPSVPFIVPLSVIICPDRVGVFLDYEACTVSFFNITNHGFLIYKFSHCSFSQPVFPYLNPRKCGVPMTLCSPSS [human TRIM5α, 330-340 = QARGTLFTFQTFV] | 0.012 ± 0.016
MASGILVNVKEEVTCPICLELLTQPLSLDCGHSFCQACLTANHKKSMLDKGESSCPVCRISYQPENIRPNRHVANIVEKLREVKLSPEGQKVDHCARHGEKLLLFCQEDGKVICWLCERSQEHRGHHTFLTEEVAREYQVKLQAALEMLRQKQQEAEELEADIREEKASWKTQIQYDKTNVLADFEQLRDILDWEESNELQNLEKEEEDILKSLTNSETEMVQQTQSLRELISDLEHRLQGSVMELLQGVDGVIKRTENVTLKKPETFPKNQRRVFRAPDLKGMLEVFRELTDVRRYWVDVTVAPNNISCAVISEDKRQVSSPKPQIIYGARGTLFTFPTLVNFNYCTGILGSQSITSGKHYWEVDVSKKTAWILGVCAGFQPDAMCNIEKNENYQPKYGYWVIGLEEGVKCSAFQDSSFHTPSVPFIVPLSVIICPDRVGVFLDYEACTVSFFNITNHGFLIYKFSHCSFSQPVFPYLNPRKCGVPMTLCSPSS [human TRIM5α, 330-340 = GARGTLFTFPTLV] | 0.396 ± 0.41
MASGILVNVKEEVTCPICLELLTQPLSLDCGHSFCQACLTANHKKSMLDKGESSCPVCRISYQPENIRPNRHVANIVEKLREVKLSPEGQKVDHCARHGEKLLLFCQEDGKVICWLCERSQEHRGHHTFLTEEVAREYQVKLQAALEMLRQKQQEAEELEADIREEKASWKTQIQYDKTNVLADFEQLRDILDWEESNELQNLEKEEEDILKSLTNSETEMVQQTQSLRELISDLEHRLQGSVMELLQGVDGVIKRTENVTLKKPETFPKNQRRVFRAPDLKGMLEVFRELTDVRRYWVDVTVAPNNISCAVISEDKRQVSSPKPQIIYQAPGTLYTFQSFVNFNYCTGILGSQSITSGKHYWEVDVSKKTAWILGVCAGFQPDAMCNIEKNENYQPKYGYWVIGLEEGVKCSAFQDSSFHTPSVPFIVPLSVIICPDRVGVFLDYEACTVSFFNITNHGFLIYKFSHCSFSQPVFPYLNPRKCGVPMTLCSPSS [human TRIM5α, 330-340 = QAPGTLYTFQSFV] | 0.291 ± 0.35
MASGILVNVKEEVTCPICLELLTQPLSLDCGHSFCQACLTANHKKSMLDKGESSCPVCRISYQPENIRPNRHVANIVEKLREVKLSPEGQKVDHCARHGEKLLLFCQEDGKVICWLCERSQEHRGHHTFLTEEVAREYQVKLQAALEMLRQKQQEAEELEADIREEKASWKTQIQYDKTNVLADFEQLRDILDWEESNELQNLEKEEEDILKSLTNSETEMVQQTQSLRELISDLEHRLQGSVMELLQGVDGVIKRTENVTLKKPETFPKNQRRVFRAPDLKGMLEVFRELTDVRRYWVDVTVAPNNISCAVISEDKRQVSSPKPQIIYQARGTRYTFQSLVNFNYCTGILGSQSITSGKHYWEVDVSKKTAWILGVCAGFQPDAMCNIEKNENYQPKYGYWVIGLEEGVKCSAFQDSSFHTPSVPFIVPLSVIICPDRVGVFLDYEACTVSFFNITNHGFLIYKFSHCSFSQPVFPYLNPRKCGVPMTLCSPSS [human TRIM5α, 330-340 = QARGTRYTFQSLV] | 0.55 ± 0.035

Same assay, conditions: library: insertions and deletions

Sequence | enrichment
MASGILVNVKEEVTCPICLELLTQPLSLDCGHSFCQACLTANHKKSMLDKGESSCPVCRISYQPENIRPNRHVANIVEKLREVKLSPEGQKVDHCARHGEKLLLFCQEDGKVICWLCERSQEHRGHHTFLTEEVAREYQVKLQAALEMLRQKQQEAEELEADIREEKASWKTQIQYDKTNVLADFEQLRDILDWEESNELQNLEKEEEDILKSLTNSETEMVQQTQSLRELISDLEHRLQGSVMELLQGVDGVIKRTENVTLKKPETFPKNQRRVFRAPDLKGMLEVFRELTDVRRYWVDVTVAPNNISCAVISEDKRQVSSPKPQIIYGARGTRYQTFVNFNYNYCTGILGSQSITSGKHYWEVDVSKKTAWILGVCAGFQPDAMCNIEKNENYQPKYGYWVIGLEEGVKCSAFQDSSFHTPSVPFIVPLSVIICPDRVGVFLDYEACTVSFFNITNHGFLIYKFSHCSFSQPVFPYLNPRKCGVPMTLCSPSS [human TRIM5α, 2-codon duplication at 343] | 0.73 ± 0.57
MASGILVNVKEEVTCPICLELLTQPLSLDCGHSFCQACLTANHKKSMLDKGESSCPVCRISYQPENIRPNRHVANIVEKLREVKLSPEGQKVDHCARHGEKLLLFCQEDGKVICWLCERSQEHRGHHTFLTEEVAREYQVKLQAALEMLRQKQQEAEELEADIREEKASWKTQIQYDKTNVLADFEQLRDILDWEESNELQNLEKEEEDILKSLTNSETEMVQQTQSLRELISDLEHRLQGSVMELLQGVDGVIKRTENVTLKKPETFPKNQRRVFRAPDLKGMLEVFRELTDVRRYWVDVTVAPNNISCAVISEDKRQVSSPKPQIRGTRYQTFVNFNYCTGILGSQSITSGKHYWEVDVSKKTAWILGVCAGFQPDAMCNIEKNENYQPKYGYWVIGLEEGVKCSAFQDSSFHTPSVPFIVPLSVIICPDRVGVFLDYEACTVSFFNITNHGFLIYKFSHCSFSQPVFPYLNPRKCGVPMTLCSPSS [human TRIM5α, 4-codon deletion at 328] | 0.425 ± 0.15
MASGILVNVKEEVTCPICLELLTQPLSLDCGHSFCQACLTANHKKSMLDKGESSCPVCRISYQPENIRPNRHVANIVEKLREVKLSPEGQKVDHCARHGEKLLLFCQEDGKVICWLCERSQEHRGHHTFLTEEVAREYQVKLQAALEMLRQKQQEAEELEADIREEKASWKTQIQYDKTNVLADFEQLRDILDWEESNELQNLEKEEEDILKSLTNSETEMVQQTQSLRELISDLEHRLQGSVMELLQGVDGVIKRTENVTLKKPETFPKNQRRVFRAPDLKGMLEVFRELTDVRRYWVDVTVAPNNISCAVISEDKRQVSSPKPQIIYGARGGARGTRYQTFVNFNYCTGILGSQSITSGKHYWEVDVSKKTAWILGVCAGFQPDAMCNIEKNENYQPKYGYWVIGLEEGVKCSAFQDSSFHTPSVPFIVPLSVIICPDRVGVFLDYEACTVSFFNITNHGFLIYKFSHCSFSQPVFPYLNPRKCGVPMTLCSPSS [human TRIM5α, 4-codon duplication at 330] | 2.21 ± 2.3
MASGILVNVKEEVTCPICLELLTQPLSLDCGHSFCQACLTANHKKSMLDKGESSCPVCRISYQPENIRPNRHVANIVEKLREVKLSPEGQKVDHCARHGEKLLLFCQEDGKVICWLCERSQEHRGHHTFLTEEVAREYQVKLQAALEMLRQKQQEAEELEADIREEKASWKTQIQYDKTNVLADFEQLRDILDWEESNELQNLEKEEEDILKSLTNSETEMVQQTQSLRELISDLEHRLQGSVMELLQGVDGVIKRTENVTLKKPETFPKNQRRVFRAPDLKGMLEVFRELTDVRRYWVDVTVAPNNISCAVISEDKRQVSSPKPQIIYGANFNYCTGILGSQSITSGKHYWEVDVSKKTAWILGVCAGFQPDAMCNIEKNENYQPKYGYWVIGLEEGVKCSAFQDSSFHTPSVPFIVPLSVIICPDRVGVFLDYEACTVSFFNITNHGFLIYKFSHCSFSQPVFPYLNPRKCGVPMTLCSPSS [human TRIM5α, 9-codon deletion at 332] | 1.01 ± 0.85
MASGILVNVKEEVTCPICLELLTQPLSLDCGHSFCQACLTANHKKSMLDKGESSCPVCRISYQPENIRPNRHVANIVEKLREVKLSPEGQKVDHCARHGEKLLLFCQEDGKVICWLCERSQEHRGHHTFLTEEVAREYQVKLQAALEMLRQKQQEAEELEADIREEKASWKTQIQYDKTNVLADFEQLRDILDWEESNELQNLEKEEEDILKSLTNSETEMVQQTQSLRELISDLEHRLQGSVMELLQGVDGVIKRTENVTLKKPETFPKNQRRVFRAPDLKGMLEVFRELTDVRRYWVDVTVAPNNISCAVISEDKRQVSSPKPQIIYGARGTRYQTFVNFNYCYCTGILGSQSITSGKHYWEVDVSKKTAWILGVCAGFQPDAMCNIEKNENYQPKYGYWVIGLEEGVKCSAFQDSSFHTPSVPFIVPLSVIICPDRVGVFLDYEACTVSFFNITNHGFLIYKFSHCSFSQPVFPYLNPRKCGVPMTLCSPSS [human TRIM5α, 2-codon duplication at 344] | 0.759 ± 0.49
MASGILVNVKEEVTCPICLELLTQPLSLDCGHSFCQACLTANHKKSMLDKGESSCPVCRISYQPENIRPNRHVANIVEKLREVKLSPEGQKVDHCARHGEKLLLFCQEDGKVICWLCERSQEHRGHHTFLTEEVAREYQVKLQAALEMLRQKQQEAEELEADIREEKASWKTQIQYDKTNVLADFEQLRDILDWEESNELQNLEKEEEDILKSLTNSETEMVQQTQSLRELISDLEHRLQGSVMELLQGVDGVIKRTENVTLKKPETFPKNQRRVFRAPDLKGMLEVFRELTDVRRYWVDVTVAPNNISCAVISEDKRQVSSPKPQIIYQIIYGARGTRYQTFVNFNYCTGILGSQSITSGKHYWEVDVSKKTAWILGVCAGFQPDAMCNIEKNENYQPKYGYWVIGLEEGVKCSAFQDSSFHTPSVPFIVPLSVIICPDRVGVFLDYEACTVSFFNITNHGFLIYKFSHCSFSQPVFPYLNPRKCGVPMTLCSPSS [human TRIM5α, 4-codon duplication at 326] | 0.205 ± 0.048
MASGILVNVKEEVTCPICLELLTQPLSLDCGHSFCQACLTANHKKSMLDKGESSCPVCRISYQPENIRPNRHVANIVEKLREVKLSPEGQKVDHCARHGEKLLLFCQEDGKVICWLCERSQEHRGHHTFLTEEVAREYQVKLQAALEMLRQKQQEAEELEADIREEKASWKTQIQYDKTNVLADFEQLRDILDWEESNELQNLEKEEEDILKSLTNSETEMVQQTQSLRELISDLEHRLQGSVMELLQGVDGVIKRTENVTLKKPETFPKNQRRVFRAPDLKGMLEVFRELTDVRRYWVDVTVAPNNISCAVISEDKRQVSSPKPQIIYGARGTRYQTFVNFILGSQSITSGKHYWEVDVSKKTAWILGVCAGFQPDAMCNIEKNENYQPKYGYWVIGLEEGVKCSAFQDSSFHTPSVPFIVPLSVIICPDRVGVFLDYEACTVSFFNITNHGFLIYKFSHCSFSQPVFPYLNPRKCGVPMTLCSPSS [human TRIM5α, 5-codon deletion at 343] | 0.75 ± 0.59
